This is one part of the list.

The subject of this assay is PfHDP1 homeodomain (GST-tagged). Briefly: gcPBM binding intensity (ln(normalized median fluorescence intensity)); higher = stronger DNA binding. The method, boiled down: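 For binding intensity, the highest Masliner-normalised natural-log median intensity across replicate spots of either probe orientation was taken. Protein bound to the array was stained with Alexa488 anti-GST antibody and scanned at 488 nm. The protein, GST-tagged P. falciparum DNA-binding domains from E. coli at about 25 μg on average, had been applied for 1 h to an Agilent 4 × 180k array of primer-extended double-stranded 36-bp intergenic genomic probes and negative controls.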
In the case of “TTATATTATGGACACACACACAAAAAAAAAAAAAAA [CACACA_site7744]”, the “gcPBM binding intensity (ln)” value turned out to be 6.31.
As for “ATTTGGCATGGACACACACACACACCGACAGACATA [CACACA_site4491]”, the figure is 6.55; as for “TTGATGATATAAAAAAGTACTTATATTATATTATAT [XGTACX_site6492]”, 6.48; as for “TTTTGTAAAAAAAAAAAAAAAGGAAAATTAAAATAA [CACACA_negctrl_site803]”, 5.9.
“TTTCCTATTTAATATAGTACATAAGAAATAATTTTA [XGTACX_site5952]”: the “gcPBM binding intensity (ln)” value came out at 6.07.
“TTGACACGTATATGCACACACCCGTAAGTGTCCATT [CACACA_site2764]”: the “gcPBM binding intensity (ln)” value stood at 10.2.
“ATATTTTATTATTGTTGTACTTTTTTTTGATTGTTT [XGTACX_site4090]”: the “gcPBM binding intensity (ln)” value worked out at 6.52.
The result for “TTTAATATTTTTCAATGTAGAAAGTTTGTCTGTTAT [CACACA_negctrl_site973]” reads 6.11; that for “AGTTATAAACATATGTGTACTTATAAAAACATATAG [XGTACX_site3268]”, 6.53.
As for “TCACACATATATTCATGTACATATTAATATTTCCAT [XGTACX_site5387]”, the figure is 6.85; as for “TTTTTTATGAACACGTCACACATCATTAAAATGTTT [CACACA_site5934]”, 6.37.
“AATATTATAATATAAACACACAAAATTCAATTATAT [CACACA_site3789]”: the “gcPBM binding intensity (ln)” value amounted to 6.53.
As for “AACGTTCATATTTCCACACACAAAAAATAAATATAA [CACACA_site3344]”, the figure is 6.91; as for “TTAATATTAATATATTGTACATATATGCACATATTT [XGTACX_site6569]”, 9.73.
In the case of “AAAAATAAAGGGCGAAAAAAAAAAAAAAAAAAAAAA [GTGCAC_negctrl_site671]”, the “gcPBM binding intensity (ln)” value was determined as 6.28.
As for “CTTGTATTTAAACACACACACACTTTCTTTTTTTAA [CACACA_site5133]”, the figure is 6.76; as for “ATATTTCATCTAGCTACACACATATAACAAATTACT [CACACA_site7843]”, 7.11; as for “TACATAAAAATATCACGTACATATAATCATATACTA [XGTACX_site3505]”, 6.32.
Consider “ACCTTTGATATATACACACACATAAAAAAAATATAT [CACACA_site6952]”, for which the “gcPBM binding intensity (ln)” value was determined as 7.99.
As for “TTCTTTTTCCAATTTGCACACCACAAAATTATATAT [CACACA_site2909]”, the figure is 10.6.
As for “ATTAATAATATTCCTTGTACATGATTTTTCTAAATA [XGTACX_site7099]”, the figure is 6.93.
The result for “TATAAATATAAATACACACACACATCAATACAGATA [CACACA_site5850]” reads 6.87.
Take “AAAAAAAAAAAAAAAACACACATACACCCCCACCCA [CACACA_site9117]”: the “gcPBM binding intensity (ln)” value was 7.9.
The result for “TATAATAATGCCTTTACATGCAATAATAAAGAAATA [TGCATGCA_site631]” reads 6.31; that for “TCTTTTGAACAAATTTGTACGTATATAAAAATATTT [XGTACX_site6547]”, 6.79.
As for “AATGAATTAATAGCTACACACGGTAACATAATAACT [CACACA_site851]”, the figure is 6.37; as for “TGCACAGACGGACACACACACAACTAAAAAATAATG [CACACA_site5424]”, 6.84.
The result for “TGTGTTAATAGAAAAAGTACATATACATATATATAT [XGTACX_site4951]” reads 8.48.
“TTAAATATAAAAAGTAGTACATTTATATTTACCATA [XGTACX_site2962]”: the “gcPBM binding intensity (ln)” value amounted to 6.19.
With “TCAAATTATATGAGTGGTACACATGTAATATTTTTA [XGTACX_site6518]”, the “gcPBM binding intensity (ln)” value was determined as 6.01.
The result for “AAAAAACGACCTTACGCACACATTATTCTAGTCTAT [CACACA_site2349]” reads 7.11; that for “TTACATTTTTTATGTTTTTTTATATTGCAAAAAAAT [CACACA_negctrl_site1050]”, 7.86; that for “ATATTTTGTATAATCACACACACTATTATTAAATAG [CACACA_site2612]”, 6.49.
Consider “ATATATATATATATATGTACTTATTAAGATTAAAAA [XGTACX_site61]”, for which the “gcPBM binding intensity (ln)” value was determined as 9.46.
In the case of “AAAAAAATATATATTACACACATATATACATATATA [CACACA_site3125]”, the “gcPBM binding intensity (ln)” value turned out to be 6.68.
Take “ATATATATATATATTTGTACATATATATAATTTTTC [XGTACX_site7460]”: the “gcPBM binding intensity (ln)” value stood at 9.14.
“AAAATAAAAAAAAAAGGTACACAAAAAGATGGACTG [XGTACX_site2650]”: the “gcPBM binding intensity (ln)” value is 6.49.
As for “TATAATTGTCTTCACACACACATATATATATATATA [CACACA_site2743]”, the figure is 9.45.
“TTTTTTTTTTAAAAAACACACACCTAAACAAGATAT [CACACA_site875]”: the “gcPBM binding intensity (ln)” value was 6.95.
The result for “CGCATACACCAACACACACACACATATATATATATA [CACACA_site635]” reads 9.38.
With “TATAAATACTTATATGTACACACATATAGATATATA [CACACA_site8819]”, the “gcPBM binding intensity (ln)” value turned out to be 6.39.
As for “ATCTAATATATATTCTGTACGTAATTAAAACCACAA [XGTACX_site3152]”, the figure is 6.87; as for “AGAAGTCTGTAATGATGTACTGGAAAAATATAAATA [XGTACX_site8148]”, 6.48.
The result for “TAGATCTTATTTACAAGTACATATATACGATTCATT [XGTACX_site7578]” reads 6.31; that for “ATGTTGTCAAAAAAATGTACTTACATAATATTTTCC [XGTACX_site1732]”, 6.27.
For the sequence “TTTATTTTTTGTGGCACACAGAAGAAACAAGAACAA [CACACA_site1696]”, the “gcPBM binding intensity (ln)” value stood at 7.16.
The result for “AATGAATAATTATTTTGTACATAATATTATATTTAT [XGTACX_site5350]” reads 6.51.
The result for “TAAATGTGAACAATAGAAGTAATAAGAAGAATAAAA [CACACA_negctrl_site1080]” reads 6.63.
“AATAGTAATTTGAATACACACAATAATATATTTATA [CACACA_site7055]”: the “gcPBM binding intensity (ln)” value is 6.44.
As for “TAACACCAAACTAAATGTACACACATACATAAATAT [XGTACX_site2201]”, the figure is 6.67; as for “TCTTATATGATATTTATTTATTTATTTATTTATTCA [GTGCAC_negctrl_site686]”, 6.12.
With “AAAATGAAAATGAAAATGAAAATGGGAAAATGTCAA [TGCATGCA_negctrl_site488]”, the “gcPBM binding intensity (ln)” value was 6.62.
As for “TATAATTATATGTATACACACACATACATTTACATA [CACACA_site9061]”, the figure is 7.18; as for “CATATATATCGTAATGCACACATGTAATTTCATAAT [CACACA_site811]”, 10.7.
Consider “TTATATATAAGTTTATTCATTTTTTTTTTTTTTTTT [XGTACX_negctrl_site573]”, for which the “gcPBM binding intensity (ln)” value came to 6.42.
As for “TAAATAAAAAAGAATACACACAGCATGCATAAATAT [CACACA_site237]”, the figure is 7.43; as for “TATTGTTTTTTTTACTGTACACAAGTAAATGAAAAA [XGTACX_site790]”, 6.27; as for “AAAAAATTCAAAAGGTGTACAACATTATATTATTCC [XGTACX_site5118]”, 7.1.
As for “TCTGTATATTATTCAAGTACACAATATAAATATAAA [XGTACX_site7241]”, the figure is 6.29; as for “GATAACTTTTTTCTCACACACAAATATTTTAATCAT [CACACA_site7685]”, 6.67; as for “AAAAATAAAAAAATAAATACGTATACATATATAATA [TGCATGCA_negctrl_site551]”, 6.47.
Consider “GAACAAATTAAATAGGTGCATTAACATGTTCTATTT [GTGCAC_site9729]”, for which the “gcPBM binding intensity (ln)” value turned out to be 10.1.
As for “GTATATAATTAAAGTTGTACCCTTAAAAAAGGGAAA [XGTACX_site7278]”, the figure is 5.81; as for “ATAAGCTCATGCAGGTGTACACAAAAAGAAAAAAAA [XGTACX_site2433]”, 6.64; as for “ATAATGAAAAGGAACATACACACCCCATATAAATAT [CACACA_site3442]”, 7.39.
The result for “GGAATAGTAATATATACACACAAATACATATATATA [CACACA_site67]” reads 6.78.
In the case of “TTTATTTTTTAATGATGTACTATTTATCCAGAAAAG [XGTACX_site7750]”, the “gcPBM binding intensity (ln)” value worked out at 6.19.
Turning to “ACTTATACAAAATGTGCATGTTATATTTACAATAAT [TGCATGCA_site108]”, the “gcPBM binding intensity (ln)” value turned out to be 8.39.
As to “AAATTAAATGTAAGCACACATAAATTATACTCATAT [CACACA_site5782]”, the “gcPBM binding intensity (ln)” value is 6.54.
In the case of “ACATATAAATAAATAAATATATATATATATATATAT [GTGCAC_negctrl_site378]”, the “gcPBM binding intensity (ln)” value stood at 9.32.
Consider “TTTTTATAACTATATTATATAACTTTTGTACGAACT [CACACA_negctrl_site1423]”, for which the “gcPBM binding intensity (ln)” value was found to be 6.3.
As for “TATTTACACCTAATCACAAATAAAATAAAATCAAAT [CACACA_negctrl_site531]”, the figure is 6.77.
As for “GATAAGGTATTCAAATGTACAAAATGTTTTATATAA [XGTACX_site6863]”, the figure is 6.35; as for “TAAATCAAAATAATTTAACACACAATTTTAATACTG [CACACA_site8744]”, 6.1; as for “TTTTCCAATTTAAAAGCATGCATCTGTTTTTTTTTT [TGCATGCA_site482]”, 6.2.
In the case of “AGAGGTAGAGAGAAAACATGCATAATGATTTTCATA [TGCATGCA_site958]”, the “gcPBM binding intensity (ln)” value turned out to be 6.1.
Consider “TAGAGGTATAAAATATGTACTTATAAAAACATGAAT [XGTACX_site8916]”, for which the “gcPBM binding intensity (ln)” value was determined as 6.71.
The result for “TATATGATATAATATACACACATACAGATATATATA [CACACA_site4440]” reads 6.59; that for “AAATTATTAAGTGATATAATATTCTATAGATGGGGA [CACACA_negctrl_site168]”, 6.76.
As for “AAAAAAAGTAAATGTTGTACTATAATATGTAATATA [XGTACX_site7966]”, the figure is 6.37; as for “AAATAACACTAATGATGTACTCAACTATTTATAATT [XGTACX_site8183]”, 6.37.
Regarding “ATATACATATCCATATTTATATCTATATTTAAAACA [CACACA_negctrl_site747]”, the “gcPBM binding intensity (ln)” value worked out at 5.96.
For the sequence “TACATATATATTATATGTACTTATATTTTTATAATA [XGTACX_site3452]”, the “gcPBM binding intensity (ln)” value stood at 6.09.
The result for “AACCACATACATATAACACACATATACAATCTATAT [CACACA_site1987]” reads 6.84; that for “TAAAAAAAATATTTTTGTACGAATTAAATTTTTTTT [XGTACX_site4838]”, 5.98.
“TATGAAATTTTAATTACACACAGGAAAATAAAATGG [CACACA_site4935]”: the “gcPBM binding intensity (ln)” value came to 6.45.
For “ACATATTTTTAATACACACTCAAAAAAGTACTTAAC [CACACA_site3014]”, the “gcPBM binding intensity (ln)” value was 6.7.
Turning to TTCTTAAAAGGAAAGGTGCAACTTTATCATTTTCTT, the “gcPBM binding intensity (ln)” value was determined as 10.2.
